# Test results from the supplement of paper PMC4604168 (melanoma cell lines).
# This is one part of the list. Many values rest on one well or one pass, so single values are uncertain.
# Columns and labels:
# Assay in all cases: cell count relative to DMSO control; melanoma cells; higher = more viable cells
# Details in all cases: library dose: low library concentration; 72 h
# [1] = tested on: WM115
# [2] = tested on: WM1716
# [3] = tested on: WM1745
# [4] = tested on: WM3526
# [5] = tested on: WM3619
# [6] = tested on: WM451Lu
# 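Note: cell number obtained by counting DAPI-stained nuclei in high-throughput microscope images with image analysis software, screen run in 1,536-well plates.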
SMILES,cell count [1] [%],cell count [2] [%],cell count [3] [%],cell count [4] [%],cell count [5] [%],cell count [6] [%]
"Cn1c(=O)n(-c2ccc(C(C)(C)C#N)cc2)c2c3cc(-c4cnc5ccccc5c4)ccc3ncc21 + CN1CCN(c2ccc3nc(-c4c(N)c5c(F)cccc5[nH]c4=O)[nH]c3c2)CC1 [Dovitinib] (first compound 0.004 µM, partner dose 0.1 µM)",102,113,114,73,91.7,113
"Cc1cn(-c2cc(NC(=O)c3ccc(C)c(Nc4nccc(-c5cccnc5)n4)c3)cc(C(F)(F)F)c2)cn1 [nilotinib] + COc1cc(N2CCC(N3CCN(C)CC3)CC2)ccc1Nc1ncc(Cl)c(Nc2ccccc2S(=O)(=O)C(C)C)n1 [NVP-TAE684] (first compound 0.2 µM, partner dose 0.08 µM)",93.3,104,72,79.5,58.2,89.5
"Cc1cc(Nc2cc(N3CCN(C)CC3)nc(/C=C/c3ccccc3)n2)n[nH]1 + C[C@@H]1CCN(C(=O)CC#N)C[C@@H]1N(C)c1ncnc2[nH]ccc12 [CP690550] (first compound 0.04 µM, partner dose 1 µM)",99.7,95.5,84,91.7,102,104
"Cc1cc(Nc2cc(N3CCN(C)CC3)nc(/C=C/c3ccccc3)n2)n[nH]1 + O=C1NC(=O)/C(=C/c2ccc(-c3ccc(F)cc3O)o2)S1 [AS252424] (first compound 0.04 µM, partner dose 1 µM)",90.4,81.9,94.9,93.3,118,107
"Cn1c(=O)n(-c2ccc(C(C)(C)C#N)cc2)c2c3cc(-c4cnc5ccccc5c4)ccc3ncc21 + Nc1cccc2c1CN(C1CCC(=O)NC1=O)C2=O [lenalidomide] (first compound 0.004 µM, partner dose 1 µM)",90.4,81.7,94,79.7,88.1,106
"Cc1cn(-c2cc(NC(=O)c3ccc(C)c(Nc4nccc(-c5cccnc5)n4)c3)cc(C(F)(F)F)c2)cn1 [nilotinib] + COCC[n+]1c2c(n(Cc3cnccn3)c1C)C(=O)c1ccccc1C2=O [YM155] (first compound 0.2 µM, partner dose 0.0004 µM)",113,100,99.1,103,103,121
"CC(C)C[C@H](NC(=O)[C@H](Cc1ccccc1)NC(=O)c1cnccn1)B(O)O [Bortezomib] + CO[C@@H]1[C@H](N(C)C(=O)c2ccccc2)C[C@H]2O[C@]1(C)n1c3ccccc3c3c4c(c5c6ccccc6n2c5c31)C(=O)NC4 [Midostaurin] (first compound 0.001 µM, partner dose 0.08 µM)",78.7,31.1,52.8,97.7,21.5,99.8
"CC(C)C[C@H](NC(=O)[C@H](Cc1ccccc1)NC(=O)c1cnccn1)B(O)O [Bortezomib] + Nc1cccc2c1CN(C1CCC(=O)NC1=O)C2=O [lenalidomide] (first compound 0.001 µM, partner dose 1 µM)",93.1,38.8,53.3,109,13.1,109
"CC(C)C[C@H](NC(=O)[C@H](Cc1ccccc1)NC(=O)c1cnccn1)B(O)O [Bortezomib] + N#Cc1c(O)c2c(-c3ccc(-c4ccccc4O)cc3)csc2[nH]c1=O [A769662] (first compound 0.001 µM, partner dose 2 µM)",103,25,56.6,86.8,30.2,84.3
"Cc1cn(-c2cc(NC(=O)c3ccc(C)c(Nc4nccc(-c5cccnc5)n4)c3)cc(C(F)(F)F)c2)cn1 [nilotinib] + NC1(c2ccc(-c3nc4ccn5c(=O)[nH]nc5c4cc3-c3ccccc3)cc2)CCC1 [MK2206] (first compound 0.2 µM, partner dose 0.4 µM)",85.7,100,92.1,78.5,92.3,101
"CC(C)C[C@H](NC(=O)[C@H](Cc1ccccc1)NC(=O)c1cnccn1)B(O)O [Bortezomib] + CCN(CC)CCCCNc1ncc2cc(-c3cc(OC)cc(OC)c3)c(NC(=O)NC(C)(C)C)nc2n1 [PD173074] (first compound 0.001 µM, partner dose 0.1 µM)",88.6,42,74.6,94.8,14.5,88.9
"COc1ccc(C2=N[C@@H](c3ccc(Cl)cc3)[C@@H](c3ccc(Cl)cc3)N2C(=O)N2CCNC(=O)C2)c(OC(C)C)c1 [Nutlin-3] + NC1(c2ccc(-c3nc4ccn5c(=O)[nH]nc5c4cc3-c3ccccc3)cc2)CCC1 [MK2206] (first compound 0.1 µM, partner dose 0.4 µM)",81.9,84.9,89.6,76.9,88,83.5
"Cc1cn(-c2cc(NC(=O)c3ccc(C)c(Nc4nccc(-c5cccnc5)n4)c3)cc(C(F)(F)F)c2)cn1 [nilotinib] + CS(=O)(=O)c1ccc(C(=O)Nc2ccc(Cl)c(-c3ccccn3)c2)c(Cl)c1 [vismodegib] (first compound 0.2 µM, partner dose 1 µM)",108,100,112,108,113,106
"Cc1cc(Nc2cc(N3CCN(C)CC3)nc(/C=C/c3ccccc3)n2)n[nH]1 + COc1ccc(-c2ccc3c(N4CCOCC4)nc(N4C[C@@H](C)O[C@@H](C)C4)nc3n2)cc1CO [KU0063794] (first compound 0.04 µM, partner dose 0.02 µM)",88.7,88.4,87.6,92.7,82.6,106
"Cc1cn(-c2cc(NC(=O)c3ccc(C)c(Nc4nccc(-c5cccnc5)n4)c3)cc(C(F)(F)F)c2)cn1 [nilotinib] + C[C@@H](Oc1cc(-c2cnn(C3CCNCC3)c2)cnc1N)c1c(Cl)ccc(F)c1Cl [Crizotinib] (first compound 0.2 µM, partner dose 0.2 µM)",104,108,110,129,85,113
"Cn1c(=O)n(-c2ccc(C(C)(C)C#N)cc2)c2c3cc(-c4cnc5ccccc5c4)ccc3ncc21 + Cn1c(Nc2ccc(C(F)(F)F)cc2)nc2cc(Oc3ccnc(-c4ncc(C(F)(F)F)[nH]4)c3)ccc21 [CHIR265] (first compound 0.004 µM, partner dose 0.08 µM)",46.2,65.5,68.9,42,43.7,93.7
"COc1ccc(C2=N[C@@H](c3ccc(Cl)cc3)[C@@H](c3ccc(Cl)cc3)N2C(=O)N2CCNC(=O)C2)c(OC(C)C)c1 [Nutlin-3] + C[C@@H]1CCN(C(=O)CC#N)C[C@@H]1N(C)c1ncnc2[nH]ccc12 [CP690550] (first compound 0.1 µM, partner dose 1 µM)",77.2,80.5,84,94.6,141,108
"CC(C)C[C@H](NC(=O)[C@H](Cc1ccccc1)NC(=O)c1cnccn1)B(O)O [Bortezomib] + CC(=O)c1c(C)c2cnc(Nc3ccc(N4CCNCC4)cn3)nc2n(C2CCCC2)c1=O [palbociclib] (first compound 0.001 µM, partner dose 0.04 µM)",83.5,19.4,59.1,48.2,16.8,70.1
"Cn1c(=O)n(-c2ccc(C(C)(C)C#N)cc2)c2c3cc(-c4cnc5ccccc5c4)ccc3ncc21 + O=C(CCCCCCC(=O)Nc1ccccc1)NO [vorinostat] (first compound 0.004 µM, partner dose 0.08 µM)",87.7,124,108,78.7,98.8,75.4
